In publication PMC12136788:
The list shows a part of the results.

B1: chr12:86292109:86292110:-_ENSMUSG00000042350_ENSMUST00000043169|mus_mus|FALSE|FALSE (ssRNA)
RNA: GGGAGUUCUACAGUCCGACGAUCACUUUCCACUCCUUUCACUUGUCUUCUAACUUGCACAUUUGAAAAAAAAAAAAAGAAAAGAAAAAGAAAAGGCCAAAAAGUCACCAGAAAGGAUCUGCCCUCCAAAUCUUCAUUGAGGUUCAACAGAGGAUUGAGCAUCA
B2: chr7:151048522:151048523:+_ENSG00000013374_ENST00000566856|hu_mus|hu_hu_hu_mus_True|58_78 (ssRNA)
RNA: GGGAGUUCUACAGUCCGACGAUCCUGUUUCUUAUUUAUUACGAUCUUGAUGUAAUUUUCUUGAAGUCCGAAAGUUUCAGCUAUUUUACACCUCAGGUCUCUACCAGUGACAUGCAAGCGGGUCUCCAACAAGCUUUUCUUAUCCAACAGAGGAUUGAGCAUCA
B3: chr1:58468927:58468928:-_ENSMUSG00000026034_ENSMUST00000148330|mus_mus|mus_mus_mus_hu_False|8_88 (ssRNA)
RNA: GGGAGUUCUACAGUCCGACGAUCAAUUACUGAAAAAGAUGUUCAUUUAUUUGGUUUUGUACUUAAUGAACCAAAUUACCCAAACAAAAUAAACAUGGCAAUAUAAAAAUGUUAAGAAUUUACAAAGAUUAAAAGCUUAACUUACAACAGAGGAUUGAGCAUCA
B4: chr7:44244176:44244177:+_ENSG00000106636_ENST00000223369|hu_mus|hu_hu_hu_mus_False|1_58 (ssRNA)
RNA: GGGAGUUCUACAGUCCGACGAUCACUGUCGCUCCGGACGUAGACAUGGCAAAGAUACUCUUGUUCUUUGACAGAAGCUCUAGUGCCUUUCCCCGAGCGUUCCACAAUCAGUUGACUUGUAAAGGUCAUGAAUUCCUGAACGCUCAACAGAGGAUUGAGCAUCA
B5: chr11:48615247:48615248:+_ENSMUSG00000020372_ENSMUST00000020640|perfect_dup|motif|central (ssRNA)
RNA: GGGAGUUCUACAGUCCGACGAUCUCCAUCCCAGGAGCCUGAGAGGGCAAACUGGCCAUCUGAGGAGAUAACCACAUCACGGACAAAGUGGGAGUGACCCCGCAGAGCACGCUGUGGAAUUCCAUAGUUGGUCUCAUCCCUGGUCAACAGAGGAUUGAGCAUCA
B6: chr3:150289932:150289933:+_ENSG00000144895_ENST00000460851|hu_hu|hu_hu_hu_mus_False|8_78 (ssRNA)
RNA: GGGAGUUCUACAGUCCGACGAUCCUUGUAGUUUUUAACAUCCCAUACUUCCAUUUGUCCCCUCAGAUUUCCAAAUCCAGCCAGCACUAAUAUAUGUCCAUGAGGGCUAUAGAAGGCUGCGUUGCGAGGACCAGUUCCAAAGUCCAACAGAGGAUUGAGCAUCA
B7: chr3:98531265:98531266:-_ENSG00000057019_ENST00000326840|hu_hu|FALSE|FALSE (ssRNA)
RNA: GGGAGUUCUACAGUCCGACGAUCUCCGAGCAGCUCCAUUUUCAUGGCAAUUUUCUGCUGCCAUUGGGUAGGAUUCACUCUAAUAAAACGUGCAAUAAUUGGUGGCAAAAAGUUAUUACGCACAUCCUGGUGAUAAUCUUUGUUCAACAGAGGAUUGAGCAUCA
B8: chr18:52893488:52893489:-_ENSG00000196628_ENST00000354452|hu_hu|hu_hu_hu_mus_True|38_98 (ssRNA)
RNA: GGGAGUUCUACAGUCCGACGAUCUAUUUAGACCAUUUCAAUGGAUUUAUGGCAUUUACUCAGUGCUGAUAGGUGGAAAAACUACUUCAACAGGGAUUUUUUUUUUUCUUAAUACAUGCCAAGAUUGUGUGGCUGUCAAAACAGCAACAGAGGAUUGAGCAUCA
B9: chr8:24301720:24301721:-_ENSMUSG00000031545_ENSMUST00000167004|mus_mus|FALSE|FALSE (ssRNA)
RNA: GGGAGUUCUACAGUCCGACGAUCUGCUUCCAAGGUUUUACUUUCCUCCUGCCCCAAAGCAUUCAGCGGGUAAAUUUGUCCUAAAGAUCUGUAUUGUCAGAAGUACCAAGAAGAGUUCGCCUUGGUGCCAGAAGAAUCCUGAAACAACAGAGGAUUGAGCAUCA
B10: chr12:39763582:39763583:-_ENSG00000139116_ENST00000544797|hu_mus|hu_hu_hu_mus_False|18_68 (ssRNA)
RNA: GGGAGUUCUACAGUCCGACGAUCCUCUAGGAACUGGGCAUUCACUUUGAAUUCAGGAGGGGGCAGCCCAUUUUUAAUCGCUGAGGUCUUUUUCUCAUCAAUACUCUUGAACAGGUGUUUAACAGCUCGAGAGAUGAUGCCCUGCAACAGAGGAUUGAGCAUCA
B11: 33135152_33138273_1075_CDS_ENSG00000162521_ENST00000458695|human|control|control (ssRNA)
RNA: GGGAGUUCUACAGUCCGACGAUCAUCUUCUGGGGAUUGUUCCUCUCCAAUUUUACUUAAAUCCCAGACAUUCAGUCUGCGAUCAGUACCACUGGAAGCUAAAAUAGUCUCAUUGUGAGGUGACCACUGAACCUGGAAUAUUUCCAACAGAGGAUUGAGCAUCA
B12: chr3:58389949:58389950:+_ENSMUSG00000075700_ENSMUST00000107924|mus_mus|motif|central (ssRNA)
RNA: GGGAGUUCUACAGUCCGACGAUCCAGGAAGAAAACCAUCAUACAUGCAUAAACCUUAUUUUCUUGGCCCCACUGCCAGAUGCGGGGAGCUUGCAUGCCGAAAAAAGCAAAAGGAUCUUUGCCAACAAUUAUUAAGCCUAUUAACAACAGAGGAUUGAGCAUCA
B13: chr2:26350769:26350770:+_ENSG00000084733_ENST00000264710|hu_hu|motif|central (ssRNA)
RNA: GGGAGUUCUACAGUCCGACGAUCGAUAUCUUCAGCUAACGUGAGGAACGCCUUUUCGAUGUUUAUAUUUGCUUUUGCACGGGUCUCAAAAAACCUAAUACCAUGCUCCCUUGCAAUCUGUUCUCCUUUUCCUUUAGGUACAACCAACAGAGGAUUGAGCAUCA
B14: chr15:96521860:96521861:-_ENSMUSG00000022462_ENSMUST00000023099|mus_mus|motif|central (ssRNA)
RNA: GGGAGUUCUACAGUCCGACGAUCGAACUCUUUUGUGGGACACAGUAAGUGAGUGACGGAACUCCGGAUAGGGAAAAUAACGGCUGGGACCGUGAGGGUGACAGCCACCAGCACAGCCAAUCGGACAACAAGGAGAAGAAUGUCCAACAGAGGAUUGAGCAUCA

Each binder was assayed against T1, UNK ZnF1-3 (human, UniProt Q9C0B0 31-174) (assay: nsRBNS (natural sequence RNA bind-n-seq); RBNS binding buffer (assumed for nsRBNS): 25 mM Tris pH 7.5, 150 mM KCl, 3 mM MgCl2, 0.01% Triton X-100, 500 ug/ml BSA, 20 U/ml SUPERase-In, 4 C; UNK is unkempt and MSI1 is Musashi-1; names of the RNAs are library labels; protein concentration not given here; high values mean tight binding).
T1 sequence: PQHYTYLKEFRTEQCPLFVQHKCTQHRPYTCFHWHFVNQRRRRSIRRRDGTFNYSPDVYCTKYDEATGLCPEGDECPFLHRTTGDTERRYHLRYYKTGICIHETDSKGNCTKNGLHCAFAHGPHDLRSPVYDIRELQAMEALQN

Binder | binding signal [enrichment R]
B1 | 2.83
B2 | 0.64
B3 | 0.792
B4 | 0.471
B5 | 1.29
B6 | 1.04
B7 | 0.747
B8 | 1.15
B9 | 0.723
B10 | 1.49
B11 | 0.641
B12 | 1.67
B13 | 0.86
B14 | 1.15
